{"source": "the supplement of paper PMC12632987", "binders": {"B1": {"name": "traf2_out_17_162_1516 (protein)", "chain": "SELEERLEELEEELEELKKKLKEFEEKLKDLEKMSKEELTDLLVEVSEARREARRLAEELRRLKEEIGEERAQELIDEAEEIAERLQRIANKIYKELEKK"}, "B2": {"name": "traf2_out_13_95_1201 (protein)", "chain": "EEEKTKKIREVTNAIADELLAHADATAAAVEAATGDAAARDRVLAALRGHGVSAAIHVLRELAAADPEHAATYLAAAADLEAARREAGKRVAEKLKEIEE"}, "B3": {"name": "traf2_out_13_95_1124 (protein)", "chain": "SAEVAKKIMEIADEMEARRLALLEALLAKAKAAGKAEAEVQAILDLAEHGTIQEVIHALRELAKKYPEMKAEFDAAIAELEAIRREAGREVAKILKEEEE"}, "B4": {"name": "traf2_out_20_3_2183 (protein)", "chain": "EELRRELEEELERALELLRRAAELADPETAERLRELAERLRRSRELSPEDQLVELSEIRREVLRLAEEARAEGREELARVLEEAAEALNRAMNLVYQIIE"}, "B5": {"name": "traf2_out_17_162_1548 (protein)", "chain": "GELEERLKELEEELEELERRAEELESLLPELPKLSKEELTDLLVEASEARRRARRLAEEIEKLKEEIGEERAEELRERAEEIAERLQRIANAIYKELEKK"}, "B6": {"name": "traf2_out_5_63_2351 (protein)", "chain": "SERAELTELARRADAAVRAAIAAAKAGREAELEAILDEMVADPELARTALGILKGEARYYKLLGDKPEEAAIAAELAARLEAKAAERAAAEAAAAAAAAA"}, "B7": {"name": "traf2_out_20_3_2265 (protein)", "chain": "EELMKKLEEELEKAEKLLKEIEPELPEEKAKELKELLEKAKKALETDKTDALVYLSELRRKTLELAEEARAAGDEELAAKLEELADEAQRAMQLLYKIIE"}, "B8": {"name": "traf2_out_9_17_2618 (protein)", "chain": "AAAAAAERAALLEVTDEILEELVARGLITEEQAAAIREKVRAAIEAGKSPEEVRALFLGSIASILLQDDGLSVQEAQKVVGEVYRRWRELYAARRAAAAA"}}, "note": "The full ranking holds about 1,800 sequences; the median of “median log2 fold change of GCK-ALFA target abundance (FLAG IP / Myc IP barcode read proportion)” is about 0.14, and the lowest 2% start at about -0.84. This is one part of the list."}
{"biological_target": "T1, TRAF2, Q12933", "T1 chain": "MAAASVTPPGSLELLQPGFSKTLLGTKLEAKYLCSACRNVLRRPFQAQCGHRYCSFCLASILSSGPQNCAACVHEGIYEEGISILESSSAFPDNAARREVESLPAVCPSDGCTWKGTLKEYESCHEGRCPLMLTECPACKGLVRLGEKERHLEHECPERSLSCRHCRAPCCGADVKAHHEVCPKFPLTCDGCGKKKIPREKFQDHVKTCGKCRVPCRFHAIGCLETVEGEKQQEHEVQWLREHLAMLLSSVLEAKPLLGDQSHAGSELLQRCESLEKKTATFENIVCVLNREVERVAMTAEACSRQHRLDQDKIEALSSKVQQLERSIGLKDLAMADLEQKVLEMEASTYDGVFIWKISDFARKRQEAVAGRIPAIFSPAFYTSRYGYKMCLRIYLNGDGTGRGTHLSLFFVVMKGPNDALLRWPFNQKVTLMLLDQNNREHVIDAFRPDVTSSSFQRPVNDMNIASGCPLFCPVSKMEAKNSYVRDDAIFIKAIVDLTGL", "test": "median log2 fold change of GCK-ALFA target abundance (FLAG IP / Myc IP barcode read proportion) (log2 ratio); each designed protein is fused to an ALFA-tag nanobody in HEK293 cells to bring the named protein to FLAG-tagged glucokinase (GCK); Myc marks an untargeted standard; higher = target protein stabilised (more abundant)", "conditions": "target protein: 3xFLAG-MCP-GCK-ALFA reporter; HEK293 landing pad (RPLP)", "method_in_brief": "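HEK293 landing-pad cells received a recombined binder library fused to the ALFA nanobody and were induced with 2 μg mL^−1 doxycycline, then transfected with a plasmid encoding a FLAG-tagged target and a Myc-tagged standard. Lysates were collected after 48 h for anti-FLAG and anti-Myc immunoprecipitation, and the circular RNA barcodes were reverse transcribed, amplified and sequenced. Target abundance for each binder is the median log2 ratio of FLAG to Myc barcode read proportions. Barcodes had to reach a proportion of at least 10^−7 in both replicates, each binder needed at least 3 barcodes per replicate, a pseudocount of 10^−6 was applied, and the two replicates were pooled.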"}
{"binder": "B1", "median log2 fold change": 0.107}
{"binder": "B2", "median log2 fold change": 0.0404}
{"binder": "B3", "median log2 fold change": 0.0332}
{"binder": "B4", "median log2 fold change": 0.23}
{"binder": "B5", "median log2 fold change": 0.22}
{"binder": "B6", "median log2 fold change": -0.305}
{"binder": "B7", "median log2 fold change": 0.516}
{"binder": "B8", "median log2 fold change": -0.0669}
